Reference: the supplement of paper PMC8728848
The other results are listed elsewhere or left out.

Columns and labels:
Assay in all cases: glycan array binding signal (z-score within array); higher = stronger binding
Conditions in all cases: glycan notation: IUPAC condensed, linker removed; mutation: R144S
[1] = molecular target: Fuc(a1-2)Gal
How it was run: (§1)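 From the Consortium for Functional Glycomics database, 3228 arrays were curated, keeping only those whose protein sequence was available. Binding is given as a within-array Z-score averaged across arrays sharing a protein sequence and across linkers. Negative Z-scores can be read as non-binding.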

[2] = molecular target: Fuc(a1-2)Gal(b1-3)GalNAc
How it was run: as §1

[3] = molecular target: Fuc(a1-2)Gal(b1-3)GalNAc(a1-3)[Fuc(a1-2)]Gal(b1-4)Glc
How it was run: as §1

[4] = molecular target: Fuc(a1-2)Gal(b1-3)GalNAc(a1-3)[Fuc(a1-2)]Gal(b1-4)GlcNAc
How it was run: as §1

[5] = molecular target: Fuc(a1-2)Gal(b1-3)GalNAc(b1-3)Gal
How it was run: as §1

[6] = molecular target: Fuc(a1-2)Gal(b1-3)GalNAc(b1-3)Gal(a1-4)Gal(b1-4)Glc
How it was run: as §1

[7] = molecular target: Fuc(a1-2)Gal(b1-3)GalNAc(b1-4)[Neu5Ac(a2-3)]Gal(b1-4)Glc
How it was run: as §1

[8] = molecular target: Fuc(a1-2)Gal(b1-3)GlcNAc
How it was run: as §1

[9] = molecular target: Fuc(a1-2)Gal(b1-3)GlcNAc(b1-2)Man(a1-3)[Fuc(a1-2)Gal(b1-3)GlcNAc(b1-2)Man(a1-6)]Man(b1-4)GlcNAc(b1-4)GlcNAc
How it was run: as §1

[10] = molecular target: Fuc(a1-2)Gal(b1-3)GlcNAc(b1-3)Gal(b1-4)Glc
How it was run: as §1

[11] = molecular target: Fuc(a1-2)Gal(b1-3)GlcNAc(b1-3)[Fuc(a1-3)[Gal(b1-4)]GlcNAc(b1-6)]Gal(b1-4)Glc
How it was run: as §1

[12] = molecular target: Fuc(a1-2)Gal(b1-3)[Fuc(a1-4)]GlcNAc
How it was run: as §1

[13] = molecular target: Fuc(a1-2)Gal(b1-3)[Fuc(a1-4)]GlcNAc(b1-2)Man(a1-3)[Fuc(a1-2)Gal(b1-3)[Fuc(a1-4)]GlcNAc(b1-2)Man(a1-6)]Man(b1-4)GlcNAc(b1-4)GlcNAc
How it was run: as §1

[14] = molecular target: Fuc(a1-2)Gal(b1-3)[Fuc(a1-4)]GlcNAc(b1-3)[Fuc(a1-3)[Gal(b1-4)]GlcNAc(b1-6)]Gal(b1-4)Glc
How it was run: as §1

[15] = molecular target: Fuc(a1-2)Gal(b1-3)[Fuc(a1-4)]GlcNAc(b1-3)[Gal(b1-4)GlcNAc(b1-6)]Gal(b1-4)Glc
How it was run: as §1

[16] = molecular target: Fuc(a1-2)Gal(b1-4)Glc
How it was run: as §1

[17] = molecular target: Fuc(a1-2)Gal(b1-4)Glc6S
How it was run: as §1

[18] = molecular target: Fuc(a1-2)Gal(b1-4)GlcNAc
How it was run: as §1

[19] = molecular target: Fuc(a1-2)Gal(b1-4)GlcNAc(b1-2)Man(a1-3)[Fuc(a1-2)Gal(b1-4)GlcNAc(b1-2)Man(a1-6)]Man(b1-4)GlcNAc(b1-4)GlcNAc
How it was run: as §1

[20] = molecular target: Fuc(a1-2)Gal(b1-4)GlcNAc(b1-3)Gal(b1-4)GlcNAc
How it was run: as §1

[21] = molecular target: Fuc(a1-2)Gal(b1-4)GlcNAc(b1-3)Gal(b1-4)GlcNAc(b1-3)Gal(b1-4)GlcNAc
How it was run: as §1

[22] = molecular target: Fuc(a1-2)Gal(b1-4)GlcNAc(b1-3)GalNAc
How it was run: as §1

[23] = molecular target: Fuc(a1-2)Gal(b1-4)GlcNAc6S
How it was run: as §1

[24] = molecular target: Fuc(a1-2)Gal(b1-4)[Fuc(a1-3)]GlcNAc
How it was run: as §1

[25] = molecular target: Fuc(a1-2)Gal(b1-4)[Fuc(a1-3)]GlcNAc(b1-2)Man(a1-3)[Fuc(a1-2)Gal(b1-4)[Fuc(a1-3)]GlcNAc(b1-2)Man(a1-6)]Man(b1-4)GlcNAc(b1-4)GlcNAc
How it was run: as §1

[26] = molecular target: Fuc(a1-2)Gal(b1-4)[Fuc(a1-3)]GlcNAc(b1-3)Gal(b1-4)[Fuc(a1-3)]GlcNAc
How it was run: as §1

[27] = molecular target: Fuc(a1-2)Gal(b1-4)[Fuc(a1-3)]GlcNAc(b1-3)Gal(b1-4)[Fuc(a1-3)]GlcNAc(b1-3)Gal(b1-4)[Fuc(a1-3)]GlcNAc
How it was run: as §1

[28] = molecular target: Fuc(a1-2)Gal6S(b1-4)Glc
How it was run: as §1

[29] = molecular target: Fuc(a1-2)Gal6S(b1-4)Glc6S
How it was run: as §1

[30] = molecular target: Fuc(a1-2)Gal6S(b1-4)GlcNAc
How it was run: as §1

[31] = molecular target: Fuc(a1-2)[Gal(a1-3)]Gal
How it was run: as §1

[32] = molecular target: Fuc(a1-2)[Gal(a1-3)]Gal(b1-3)GlcNAc
How it was run: as §1

[33] = molecular target: Fuc(a1-2)[Gal(a1-3)]Gal(b1-3)GlcNAc(b1-2)Man(a1-3)[Fuc(a1-2)[Gal(a1-3)]Gal(b1-3)GlcNAc(b1-2)Man(a1-6)]Man(b1-4)GlcNAc(b1-4)GlcNAc
How it was run: as §1

[34] = molecular target: Fuc(a1-2)[Gal(a1-3)]Gal(b1-4)Glc
How it was run: as §1

[35] = molecular target: Fuc(a1-2)[Gal(a1-3)]Gal(b1-4)GlcNAc
How it was run: as §1

[36] = molecular target: Fuc(a1-2)[Gal(a1-3)]Gal(b1-4)GlcNAc(b1-2)Man(a1-3)[Fuc(a1-2)[Gal(a1-3)]Gal(b1-4)GlcNAc(b1-2)Man(a1-6)]Man(b1-4)GlcNAc(b1-4)GlcNAc
How it was run: as §1

[37] = molecular target: Fuc(a1-2)[Gal(a1-3)]Gal(b1-4)[Fuc(a1-3)]GlcNAc
How it was run: as §1

B1: Gal 3 (Homo sapiens), P17931 (protein)
chain: MADNFSLHDALSGSGNPNPQGWPGAWGNQPAGAGGYPGASYPGAYPGQAPPGAYPGQAPPGAYHGAPGAYPGAPAPGVYPGPPSGPGAYPSSGQPSAPGAYPATGPYGAPAGPLIVPYNLPLPGGVVPRMLITILGTVKPNANSILDFQRGNDVAFHFNPRFNENNRRVIVCNTKLDNNWGREERQSVFPFESGKPFKIQVLVEPDHFKVAVNDAHLLQYNHRVKKLNEISKLGISGDIDLTSASYTMI
With B1 the “glycan array binding signal (z-score)” value [1] was -0.355, the “glycan array binding signal (z-score)” value [2] was -0.358 and the “glycan array binding signal (z-score)” value [3] was 1.18. The “glycan array binding signal (z-score)” value [4] was 2.29, the “glycan array binding signal (z-score)” value [5] was -0.35 and the “glycan array binding signal (z-score)” value [6] was -0.362. The “glycan array binding signal (z-score)” value [7] was -0.359, the “glycan array binding signal (z-score)” value [8] was 0.739 and the “glycan array binding signal (z-score)” value [9] was 0.907. The “glycan array binding signal (z-score)” value [10] was 1.1, the “glycan array binding signal (z-score)” value [11] was 0.343 and the “glycan array binding signal (z-score)” value [12] was -0.352. For the same binder, the “glycan array binding signal (z-score)” value [13] was -0.354, the “glycan array binding signal (z-score)” value [14] was -0.35 and the “glycan array binding signal (z-score)” value [15] was 1.07. The “glycan array binding signal (z-score)” value [16] was -0.315, the “glycan array binding signal (z-score)” value [17] was -0.313 and the “glycan array binding signal (z-score)” value [18] was 0.468. For the same binder, the “glycan array binding signal (z-score)” value [19] was 1.48, the “glycan array binding signal (z-score)” value [20] was 1.39 and the “glycan array binding signal (z-score)” value [21] was 1.05. For the same binder, the “glycan array binding signal (z-score)” value [22] was -0.241, the “glycan array binding signal (z-score)” value [23] was 0.788 and the “glycan array binding signal (z-score)” value [24] was -0.357. The “glycan array binding signal (z-score)” value [25] was -0.342, the “glycan array binding signal (z-score)” value [26] was -0.357 and the “glycan array binding signal (z-score)” value [27] was -0.361. The “glycan array binding signal (z-score)” value [28] was -0.354, the “glycan array binding signal (z-score)” value [29] was -0.357 and the “glycan array binding signal (z-score)” value [30] was -0.361. The “glycan array binding signal (z-score)” value [31] was -0.355, the “glycan array binding signal (z-score)” value [32] was 1.58 and the “glycan array binding signal (z-score)” value [33] was 4.81. The “glycan array binding signal (z-score)” value [34] was 1.45, the “glycan array binding signal (z-score)” value [35] was 1.9 and the “glycan array binding signal (z-score)” value [36] was 5.46. For the same binder, the “glycan array binding signal (z-score)” value [37] was -0.358.
